# Experimental data reported in publication PMC4336329 (PLoS ONE, 2015).
# Screen size: about 310,000 compounds; about 2,200 (0.71%) showed an effect of 50% or more. Effects have a minus sign here. This is one part of the list. Where a SMILES comes first, the peptide text is derived from it. The star is where a group is joined. Cbz = O=C(OCc1ccccc1)*
# Molecular target: human ether-à-go-go-related gene (hERG) potassium channel (human, UniProt Q12809)
# Experiment: primary screen, population patch clamp on CHO cells stably expressing hERG
# Sequence of human ether-à-go-go-related gene (hERG) potassium channel (Q12809 whole entry, looked up): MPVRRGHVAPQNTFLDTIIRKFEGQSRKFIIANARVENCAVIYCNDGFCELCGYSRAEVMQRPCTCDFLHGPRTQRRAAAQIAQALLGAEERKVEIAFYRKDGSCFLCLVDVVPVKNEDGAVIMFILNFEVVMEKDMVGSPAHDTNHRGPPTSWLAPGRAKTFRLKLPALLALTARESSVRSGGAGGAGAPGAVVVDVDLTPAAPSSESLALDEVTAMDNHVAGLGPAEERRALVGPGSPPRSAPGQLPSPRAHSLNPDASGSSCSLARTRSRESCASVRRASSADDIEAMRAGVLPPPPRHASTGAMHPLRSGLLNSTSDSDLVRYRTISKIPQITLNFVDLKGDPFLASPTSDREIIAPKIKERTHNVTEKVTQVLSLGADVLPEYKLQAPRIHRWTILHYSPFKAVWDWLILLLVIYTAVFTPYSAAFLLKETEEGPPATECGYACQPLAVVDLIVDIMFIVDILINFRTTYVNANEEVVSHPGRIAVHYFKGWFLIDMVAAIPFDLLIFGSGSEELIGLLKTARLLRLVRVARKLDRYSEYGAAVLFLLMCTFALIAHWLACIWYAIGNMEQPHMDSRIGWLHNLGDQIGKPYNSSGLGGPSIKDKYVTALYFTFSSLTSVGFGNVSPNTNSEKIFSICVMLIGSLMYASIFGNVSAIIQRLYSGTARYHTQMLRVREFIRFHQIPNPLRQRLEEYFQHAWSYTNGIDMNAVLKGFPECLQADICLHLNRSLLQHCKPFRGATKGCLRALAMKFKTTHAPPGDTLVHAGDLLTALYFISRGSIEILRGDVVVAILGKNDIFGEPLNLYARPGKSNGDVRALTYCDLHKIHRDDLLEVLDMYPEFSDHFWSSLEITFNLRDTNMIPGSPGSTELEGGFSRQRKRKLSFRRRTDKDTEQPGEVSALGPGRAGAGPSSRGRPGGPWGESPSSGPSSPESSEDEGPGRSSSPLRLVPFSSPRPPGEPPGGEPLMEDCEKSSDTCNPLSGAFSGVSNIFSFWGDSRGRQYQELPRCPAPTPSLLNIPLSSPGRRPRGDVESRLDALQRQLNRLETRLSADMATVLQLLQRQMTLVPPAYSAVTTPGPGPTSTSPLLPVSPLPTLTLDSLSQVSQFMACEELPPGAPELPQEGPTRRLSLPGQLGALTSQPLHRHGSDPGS
row,Structure (SMILES),"hERG current change (%, negative = inhibition) at 1uM"
1,CCOC(=O)c1[nH]c2ccccc2c1NC(=O)C1CCCC1,14.3%
2,CCOc1ccc(NC(=S)N(CCN2CCOCC2)Cc2cc3cc4c(cc3[nH]c2=O)OCO4)cc1,-8.71%
3,O=C1CCCN1c1ccc(S(=O)(=O)O)cc1.c1nc[nH]n1,10.7%
4,Cc1nccn1CCCNCc1c(C(=O)N2CCCCCCC2)nc2ccc(Cl)cn12,-8.44%
5,N#CC1=C(Nc2ccccc2Cl)SC(c2ccccc2O)NC1=O (stereo not shown),14.1%
6,COc1ccc(CC(=O)Nc2ccccc2NC(=O)c2ccco2)cc1OC,0.804%
7,CCC(Oc1ccc2c(c1)C(=O)CC(C)(C)O2)C(=O)NCCN1CCCCCC1.O=C(O)C(=O)O (stereo not shown),-9.15%
8,O=C(CN1C(=O)NC(Cc2c[nH]c3ccccc23)C1=O)Nc1cccc(S(=O)(=O)N2CCCCCC2)c1 (stereo not shown),11%
9,O=C(CCc1ccccc1Cl)NC1CCCN(c2ccc(C(F)(F)F)cn2)C1 (stereo not shown),25.1%
10,O=C(CCC1COc2ccccc2O1)Nc1ncccc1O (stereo not shown),7.84%
11,COc1ccc(C(C)=O)cc1CN1C(=O)NC(CC(C)C)C1=O (stereo not shown),9.56%
12,COC(=O)c1ccc(C)c(NC(=O)Cc2coc3cc(OC)ccc23)c1,2.53%
13,O=C(/C=C/c1cccc(C(F)(F)F)c1)N1CCN(c2ccccn2)CC1,7.71%
14,CCOc1ccc2oc(C(=O)NC3CCN(Cc4ccccc4)CC3)c(C)c2c1.Cl,-5.6%
15,CC(=O)N1CCc2cc(C(=O)CN3CCN(c4ccccc4F)CC3)ccc21,5.36%
16,COc1ccc(C(CCN)c2ccc3c(c2)OCO3)cc1 (stereo not shown),13.6%
17,O=C(CSc1nc2ccccc2c(=O)n1-c1ccc(F)cc1F)Nc1ccc(N2CCOCC2)cc1,-6.45%
18,COc1ccc(C)cc1Nc1nc(N)c2cc(OC)c(OC)cc2n1,4.23%
19,Cc1cccc(OCC(=O)NCc2nnc3ccc(C(F)(F)F)cn23)c1C,4.28%
20,O=C(c1ccc2c(c1)OCO2)N1CCC2(CC1)Oc1ccc(F)cc1C(=O)C21CC(c2ccc(Cl)cc2)=NO1 (stereo not shown),7.01%
21,COC(=O)c1cccc(N2CCCC2=O)c1,15.9%
22,CCOC(=O)C1(CCc2ccccc2)CCN(C(=O)Cc2nonc2C)CC1,4.88%
23,CSCCCNC(=S)Nc1cccc(S(=O)(=O)NC2=NCCC2)c1,0.701%
24,Cc1nc2ccc(-c3nc4ccccc4[nH]3)cc2[nH]1,8.32%
25,CCN1C(=NCCCCO)N[C@@H](c2cccc(F)c2)C(C(=O)OC)=C1C,9.87%
26,CCOC(=O)Cc1csc(NC(=O)c2cnc3scc(C)n3c2=O)n1,16%
27,CC(C)C(NC(=O)C(Cc1ccccc1)NC(=O)OCc1ccccc1)C(=O)O (stereo not drawn) (Cbz-Phe-Val-OH; configuration not given here),18.2%
28,Cc1nn(C(C)C(=O)NCc2ccccc2F)c(=O)c2nn(-c3ccccc3)c(C)c12 (stereo not shown),19.7%

row,Structure (SMILES),"hERG current change (%, negative = inhibition) at 1uM"
1,O=C(O)c1ccccc1C(=O)Nc1ccc(Br)c(C(F)(F)F)c1,2.61%
2,CN1CCN(CC#CCC(O)(c2ccccc2)c2ccccc2)CC1.Cl,14.4%
3,CC(CC(=O)Nc1ccc(F)cc1F)S(=O)(=O)c1ccc2c(c1)NC(=O)CO2 (stereo not shown),9.86%
4,Cc1ccccc1SC1CCN(Cc2nc(C3CC3)no2)CC1,-1.23%
5,COc1ccc(C2N=C(N)N=C(N)N2c2ccc(C)cc2)cc1.Cl (stereo not shown),4.38%
6,CCOC(=O)CNC(=O)N1CCCC(CNS(=O)(=O)c2cccs2)C1 (stereo not shown),23.3%
7,CCN(CC)CC.CN1C=CC=C/C1=C1\SC(=S)N(CC(=O)O)C1=O,12.5%
8,O=C(Nc1cccc2ccccc12)NC1CCCc2ccccc21 (stereo not shown),9.99%
9,COc1cc(O)c(C(CC(=O)N2CCOCC2)c2ccc(N(C)C)cc2)c(OC)c1 (stereo not shown),18%
10,Cc1ccc(C(=O)CSc2cc(C)[nH]c(=O)n2)cc1,20.4%
11,O=C(Nc1cccc([N+](=O)[O-])c1)c1ccc2nsnc2c1,-1.33%
12,O=C(c1ccc(S(=O)(=O)N2CCc3ccccc3C2)cc1)N1CCCCC1,4.45%
13,COc1cc(/C=C\C(=O)OCn2nnc3ccccc3c2=O)cc(OC)c1OC,0.354%
14,Cn1cccc1Cc1nnc(SCC(=O)N2CCCCCC2)n1-c1ccc(F)cc1,6.19%
15,COCCCNC(=O)C1CCN(c2nc(C)cc(C)n2)CC1,10.8%
16,O=C(c1ccc(O)cc1)c1ccc(Cl)cc1,-3.35%
17,COc1ccccc1/C=C1\Oc2cc(OC(=O)N3CCOCC3)ccc2C1=O,11.4%
18,Cl.O=C(CN1C2=NCCCN2c2ccccc21)c1ccc(Cl)cc1Cl,-82.1%
19,COc1cc(OC)cc(C(=O)NCCCCNC(=O)c2cc(OC)cc(OC)c2)c1,7.39%
20,COc1cc(/C=C/c2nc3ccccc3s2)cc(OC)c1O,5.74%
21,NC(=O)C(Cc1ccccc1)NC(=O)C12CC3CC(CC(C3)C1)C2 (stereo not shown),9.92%
22,Cc1ccc(C(=O)N/C(=C/c2ccccc2)C(=O)NCC2CCCO2)cc1 (stereo not shown),-6.64%
23,COc1ccc(NC(=O)/C(=C\c2cccs2)NC(=O)c2ccco2)cc1,3.21%
24,CC1=CC(=C(C#N)C#N)C=C(C)N1CCC(C)C,2.09%
25,CC(=O)CCc1c[nH]c2c(C(=O)O)cccc12,8.57%
26,C/C(=N\OCC(=O)Nc1ccc2c(c1)OCCO2)c1ccc2c(c1)OCCO2,-1.22%
27,Cc1cccc(N2CCN(C(=O)c3cccc(N4CCCC4=O)c3)CC2)c1C,9.67%
